Biological target: human epidermal growth factor receptor 3 (HER3) (human), P21860
Assay: flow cytometry on HCC1569 cells, PE-labelled anti-human secondary antibody, one-site specific binding fit

Bmax: 28800
Kd: 1.55 nM
B1: Antibody-drug conjugate (10) (antibody, human IgG1, kappa)
heavy: QVQLQQWGAGLLKPSETLSLTCAVYGGSFSGYYWSWIRQPPGKGLEWIGEINHSGSTNYNPSLKSRVTISVETSKNQFSLKLSSVTAADTAVYYCARDKWTWYFDLWGRGTLVTVSSASTKGPSVFPLAPSSKSTSGGTAALGCLVKDYFPEPVTVSWNSGALTSGVHTFPAVLQSSGLYSLSSVVTVPSSSLGTQTYICNVNHKPSNTKVDKRV[… human IgG1 Fc …]
light: [… about 200 residues …]
modifications: may carry the same drug-linker on a cysteine (L chain bound to one drug molecule); position not stated; exatecan drug-linker -(Succinimid-3-yl-N)-CH2CH2-C(=O)-NH-CH2CH2-O-CH2CH2-O-CH2CH2-C(=O)-GGFG-NH-CH2CH2CH2-C(=O)-(NH-DX), joined by thioether bonds to cysteines freed by reducing the hinge disulfide bonds; average 6.2 (procedure E) or 6.4 (procedure F) drug molecules per antibody; …

Reference: patent US20220172420A1
